The list shows a part of the results.
Key:
Assay in all cases: glycan array binding signal (z-score within array); higher = stronger binding
Details in all cases: glycan notation: IUPAC condensed, linker removed
Glc(a1-2)Glc = biological target: Glc(a1-2)Glc
Outline: (§1)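 Negative Z-scores can be read as non-binding. The Z-score is calculated within each array and then averaged across arrays of one protein sequence at different concentrations or buffers and across linkers. Arrays, 3228 in all, were curated from the Consortium for Functional Glycomics database and kept only where the protein sequence was available.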

Glc(a1-2)Glc(a1-2)Glc = biological target: Glc(a1-2)Glc(a1-2)Glc
Outline: as §1

[1] = biological target: Glc(a1-2)Glc(a1-2)Glc(a1-2)Glc
Outline: as §1

[2] = biological target: Glc(a1-2)Glc(a1-2)Glc(a1-2)Glc(a1-2)Glc
Outline: as §1

[3] = biological target: Glc(a1-2)Glc(a1-2)Glc(a1-2)Glc(a1-2)Glc(a1-2)Glc
Outline: as §1

[4] = biological target: Glc(a1-2)Glc(a1-2)Glc(a1-2)Glc(a1-2)Glc(a1-2)Glc(a1-2)Glc
Outline: as §1

[5] = biological target: Glc(a1-2)Glc(a1-2)Glc(a1-2)Glc(a1-2)Glc(a1-2)Glc(a1-2)Glc(a1-2)Glc
Outline: as §1

[6] = biological target: Glc(a1-2)Glc(a1-2)Glc(a1-2)Glc(a1-2)Glc(a1-2)Glc(a1-2)Glc(a1-2)Glc(a1-2)Glc
Outline: as §1

Glc(a1-3)Glc = biological target: Glc(a1-3)Glc
Outline: as §1

Glc(a1-3)Glc(a1-3)Glc = biological target: Glc(a1-3)Glc(a1-3)Glc
Outline: as §1

[7] = biological target: Glc(a1-3)Glc(a1-3)Glc(a1-3)Glc
Outline: as §1

[8] = biological target: Glc(a1-3)Glc(a1-3)Glc(a1-3)Glc(a1-3)Glc
Outline: as §1

[9] = biological target: Glc(a1-3)Glc(a1-3)Glc(a1-3)Glc(a1-3)Glc(a1-3)Glc
Outline: as §1

[10] = biological target: Glc(a1-3)Glc(a1-3)Glc(a1-3)Glc(a1-3)Glc(a1-3)Glc(a1-3)Glc
Outline: as §1

[11] = biological target: Glc(a1-3)Glc(a1-3)Glc(a1-3)Glc(a1-3)Glc(a1-3)Glc(a1-3)Glc(a1-3)Glc
Outline: as §1

[12] = biological target: Glc(a1-3)Glc(a1-3)Glc(a1-3)Glc(a1-3)Glc(a1-3)Glc(a1-3)Glc(a1-3)Glc(a1-3)Glc
Outline: as §1

[13] = biological target: Glc(a1-3)Glc(a1-3)Glc(a1-3)Glc(a1-3)Glc(a1-3)Glc(a1-3)Glc(a1-3)Glc(a1-3)Glc(a1-3)Glc
Outline: as §1

[14] = biological target: Glc(a1-3)Glc(a1-3)Glc(a1-3)Glc(a1-3)Glc(a1-3)Glc(a1-3)Glc(a1-3)Glc(a1-3)Glc(a1-3)Glc(a1-3)Glc
Outline: as §1

[15] = biological target: Glc(a1-3)Glc(a1-3)Glc(a1-3)Glc(a1-3)Glc(a1-3)Glc(a1-3)Glc(a1-3)Glc(a1-3)Glc(a1-3)Glc(a1-3)Glc(a1-3)Glc
Outline: as §1

[16] = biological target: Glc(a1-3)Glc(a1-3)Glc(a1-3)Glc(a1-3)Glc(a1-3)Glc(a1-3)Glc(a1-3)Glc(a1-3)Glc(a1-3)Glc(a1-3)Glc(a1-3)Glc(a1-3)Glc
Outline: as §1

Glc(a1-4)Glc = biological target: Glc(a1-4)Glc
Outline: as §1

Glc(a1-4)Glc(a1-4)Glc = biological target: Glc(a1-4)Glc(a1-4)Glc
Outline: as §1

[17] = biological target: Glc(a1-4)Glc(a1-4)Glc(a1-4)Glc
Outline: as §1

[18] = biological target: Glc(a1-4)Glc(a1-4)Glc(a1-4)Glc(a1-4)Glc
Outline: as §1

[19] = biological target: Glc(a1-4)Glc(a1-4)Glc(a1-4)Glc(a1-4)Glc(a1-4)Glc
Outline: as §1

[20] = biological target: Glc(a1-4)Glc(a1-4)Glc(a1-4)Glc(a1-4)Glc(a1-4)Glc(a1-4)Glc
Outline: as §1

[21] = biological target: Glc(a1-4)Glc(a1-4)Glc(a1-4)Glc(a1-4)Glc(a1-4)Glc(a1-4)Glc(a1-4)Glc
Outline: as §1

[22] = biological target: Glc(a1-4)Glc(a1-4)Glc(a1-4)Glc(a1-4)Glc(a1-4)Glc(a1-4)Glc(a1-4)Glc(a1-4)Glc
Outline: as §1

[23] = biological target: Glc(a1-4)Glc(a1-4)Glc(a1-4)Glc(a1-4)Glc(a1-4)Glc(a1-4)Glc(a1-4)Glc(a1-4)Glc(a1-4)Glc
Outline: as §1

[24] = biological target: Glc(a1-4)Glc(a1-4)Glc(a1-4)Glc(a1-4)Glc(a1-4)Glc(a1-4)Glc(a1-4)Glc(a1-4)Glc(a1-4)Glc(a1-4)Glc
Outline: as §1

Measured: glycan array binding signal (z-score)

B1: Cel5A (Clostridium thermocellum), P16218 (protein)
chain: AVGEKMLDDFEGVLNWGSYSGEGAKVSTKIVSGKTGNGMEVSYTGTTDGYWGTVYSLPDGDWSKWLKISFDIKSVDGSANEIRFMIAEKSINGVGDGEHWVYSITPDSSWKTIEIPFSSFRRRLDYQPPGQDMSGTLDLDNIDSIHFMYANNKSGKFVVDNIKLIGATSDPTPSIKHGDLNFDNAVNSTDLLMLKRYILKSLELGTSEQEEKFKKAADLNRDNKVDSTDLTILKRYLLKAISEIPI
-0.081: [12]
-0.143: Glc(a1-2)Glc | Glc(a1-2)Glc(a1-2)Glc | [1] | [2] | [3] | [4] | Glc(a1-3)Glc | Glc(a1-3)Glc(a1-3)Glc | [8] | [9] | [10] | [11] | [13] | [14] | [16] | Glc(a1-4)Glc | Glc(a1-4)Glc(a1-4)Glc | [17] | [21] | [22] | [23]
-0.129: [19]
-0.064: [24]
-0.119: [18]
-0.111: [5]
-0.108: [6]
-0.126: [7]
0.023: [15]
-0.107: [20]

Reference: the supplement of paper PMC8728848
